About 450 (0.94%) of roughly 48,000 compounds were called active. Not shown: some 19% with an inconclusive outcome. Calls follow the shape of the dose curve; as a rule, active = well fitted inhibition curve with a large enough effect; inconclusive = small, poorly fitted or top-dose-only effect; inactive = no such curve, though single readings can be large or run the other way. Some of the results follow.
Assay: Primary qHTS for Identification of Small Molecule Inhibitors of Huntingtin Promoter Activity; also: nearly all actives have a fitted effect of over 50% in size
Conditions: HEK293 HTT promoter firefly luciferase reporter (activity 0% = vehicle and -100% = no light), 24 h; series mostly up to 57.5 µM; activity change, negative = inhibition: at the top concentration
How it was run: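 Firefly luciferase readout (Dual-Glo, 10 min RT) after 24 h, 37 °C compound exposure (final up to 57.5 uM) of HEK293 reporter cells cultured 24 h beforehand; PTC124 at 50 uM final as control inhibitor; activity scaled vehicle 0%, zero RLU -100%.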

Activity change, negative = inhibition, inactive:
COC(=O)C1=C(C)NC(=O)C1(NC(=O)c1cc(OC)c(OC)c(OC)c1)C(F)(F)F (stereo not given) -3.26%, C=Cc1ccc(Cn2nc(-c3ccc(C)cc3)ccc2=O)cc1 -21%, O=C(NC1CCCCC1)c1ccc(CSc2nc3cccnc3n2Cc2ccc(F)cc2)cc1 2.2%, O=C(c1cc(O)c(O)c(O)c1)c1ccc(O)c(O)c1O -0.375%, COc1ccc(OC)c(NC(=O)C2CCN(S(=O)(=O)c3ccc4c(c3)CCCC(=O)N4)CC2)c1 -12.3%, CCOC(=O)c1ccc(NC(=O)CCC(=O)N2Cc3ccccc3Oc3ncccc32)cc1 -29.7%, O=C1CC(c2nnc(Cc3ccc(F)cc3Cl)o2)CN1c1ccccc1 (stereo not given) -19.1%, O=C(CN1C(=O)COc2ccc(S(=O)(=O)N3CCCC3)cc21)N1CCN(c2ccc(F)cc2)CC1 -14.4%, O=C1c2[nH]nc(-c3ccccc3O)c2C(c2ccccc2F)N1Cc1cccnc1 (stereo not given) -27.7%, COCCNc1ccc(-c2nc(-c3ccco3)no2)cc1[N+](=O)[O-] 39.7%, COc1ccc(S(=O)(=O)NCC(c2ccco2)N2CCN(c3ccccc3)CC2)cc1OC (stereo not given) -29.6%, Cc1[nH]c(=O)[nH]c(=O)c1S(=O)(=O)N1CCN(c2ccccc2Cl)CC1 -14.2%, O=C(O)CCn1c(=O)c2cccn2c2cccnc21 -17.9%, N#Cc1ccccc1Cn1c(=O)n(-c2cccc(C(F)(F)F)c2)c(=O)c2sccc21 -17%, COc1ccccc1NC(=O)c1sc2nc(C)c(C(=O)Nc3ccc(C)cc3C)c(-c3cccs3)c2c1N -19.8%, CCOc1cc2[nH]c(=O)n(CCCCC(=O)N3CCN(c4cccc(Cl)c4)CC3)c(=O)c2cc1OCC -26.7%, Cc1cccc2sc(N(Cc3cccnc3)C(=O)c3cccs3)nc12 -12.7%, CCc1ccc(CN2CCc3nc(Nc4ccccc4)ncc3C2)cc1 -24.7%, CCOC(=O)c1c(C)[nH]c(CCC(=O)NCc2ccc(F)cc2)c1C -7.46%, CC(=O)Nc1ccc(NC(=O)c2cc3sccc3n2Cc2ccc(F)cc2)cc1 -13%, CC(C)(C)C1CCc2c(sc3nc(-c4cc5cc(Br)ccc5oc4=O)[nH]c(=O)c23)C1 (stereo not given) -10.6%, CCOC(=O)c1ccc(OC(=O)CCCCCN=C(N)N)cc1, Cc1cccc(NC(=O)c2oc3ccccc3c2NC(=O)c2cc(=O)c3cc(Cl)ccc3o2)c1 17.4%, COc1ccccc1C(=O)Nc1c(C(=O)N(C)c2ccccc2)sc2nc(C)cc(C)c12 -6.25%, O=C(CCS(=O)(=O)c1cc(Br)cc2c1N(C(=O)C1CC1)CC2)Nc1ccc(C(F)(F)F)cc1 -1.58%, COc1cccc(CNC(=O)CN2C(=O)COc3ccc(S(=O)(=O)Nc4ccccc4)cc32)c1 -27.3%, Cn1c(=O)c2sccc2n2c(CCC(=O)NCc3ccccc3Cl)nnc12 -18.6%, COc1ccc(CNC(=O)C2CCN(C(=O)N3CC(C)Oc4ccc(C)cc43)CC2)cc1 (stereo not given) -29.7%, CN(Cc1ccccc1)C(=O)C1CCN(S(=O)(=O)c2ccc3nc4c(c(C(=O)O)c3c2)CCCC4)CC1 -3.21%, COc1ccc(-c2nc(Cn3c(SCc4ccccc4F)nc4ccncc43)c(C)o2)cc1OC -2.47%, CCOc1ccc(C(=O)Nc2cc(-c3cn4cccnc4n3)ccc2C)cc1OCC -3.43%, COc1ccc(CCNC(=O)c2c(C)oc3ncn(CC(C)C)c(=O)c23)cc1OC 0%, CCn1cc(C(=O)NCCc2ccc(C)cc2)c(=O)c2cc(S(=O)(=O)N3CCCCC3)ccc21 -2.43%, O=C(Cn1c(=O)n(-c2ccc(Cl)cc2)c(=O)c2oc3ccccc3c21)Nc1ccccc1 -24.5%, CC1CCN(c2ncnc3c2nnn3C)CC1 1.09%, O=C(c1ccco1)N1CCN(c2nc3c(Cl)cccc3s2)CC1 -2.29%, COc1cccc(C(=O)Nc2ccccc2-c2nnc(-c3cc(OC)ccc3Br)o2)c1 -10.8%, O=C(Cc1ccc(Cl)cc1)NCC(c1cccs1)S(=O)(=O)c1ccc(F)cc1 (stereo not given) -28.9%, Cn1cnc(S(=O)(=O)N2CCC(C(=O)NCc3ccc(F)cc3)CC2)c1 -10.1%, Cc1nn2c(=O)cc(COC(=O)c3cccc(NC(=O)c4ccc(C(C)(C)C)cc4)c3)nc2s1 -13.6%, COc1ccc(C(=O)CCC(=O)Nc2ccc(OC)c(Cl)c2)cc1 -0.374%, COc1ccc(C2=CC(c3cccc(C)c3)n3nnnc3N2)cc1 (stereo not given) -21.3%, CCOC(=O)c1c(C)oc2nc(C)nc(NCCc3ccc(SC)cc3)c12 3.98%, CCN(CC)S(=O)(=O)c1ccc2c(c1)N(CC(=O)Nc1ccc(C)cc1C)C(=O)C1CCCN21 (stereo not given) -17.5%, CC(C)NC(=O)c1ccccc1NC(=O)c1nsc2ccccc12 14.3%, CCOc1ccc2nc(N3CCCC(C(=O)Nc4cccc(Cl)c4C)C3)sc2c1 (stereo not given) 63%, CCc1cc2c(cc3c(=O)n(CC(=O)N4CCCCC4)ncn32)s1 1.9%, CCCCN(CCCC)CCNC(=O)c1cc(-c2cccnc2)nc2ccc(S(=O)(=O)N3CCC(C)CC3)cc12 3.27%, CCCCn1cc(S(=O)(=O)c2ccc(F)cc2)c(=O)c2ccccc21 -23%, COc1ccccc1CNC(=O)c1ccc(-c2nc(CS(=O)c3ccccc3)c(C)o2)cc1 (stereo not given) -22%, N#CC(=C(O)c1ccc(Cl)cc1Cl)c1nc2cc(Cl)ccc2c(=O)[nH]1 -1.75%, Cc1ccc(Cl)cc1NC(=O)CN1C(=O)COc2ccc(S(=O)(=O)N3CCOCC3)cc21 -16.8%, Cc1cnc2c(c1SCC(=O)Nc1ccc(F)cc1F)c(=O)n(C)c(=O)n2C -14.1%, COc1ccc(Cn2c(SCC(N)=O)nc3c(sc4ccccc43)c2=O)cc1 10.5%, Cc1cc(F)ccc1NC(=O)C1CCCN(S(=O)(=O)c2ccc3c(c2)CCCC(=O)N3)C1 (stereo not given) -32%, COc1ccc(S(=O)(=O)c2c(Nc3ccc(C)cc3)sc(C(=O)c3ccc4c(c3)OCO4)c2N)cc1 -30%, CN(C)c1ccc(CN(CC2CCCO2)C(=O)c2ccc(Br)cc2)cc1 (stereo not given) -17.3%, Cc1ccc2[nH]c3c(=O)n(CC(=O)N4CCN(c5cccc(C(F)(F)F)c5)CC4)ncc3c2c1 4.61%, COc1cccc(CNC(=O)CN2C(=O)CSc3c2c(C)nn3-c2ccccc2)c1 -21.9%, Cc1ccc(-n2c(=O)c3ccc(C(=O)NCc4ccccc4Cl)cc3n(CC(=O)Nc3cccc(F)c3)c2=O)cc1 -13.1%, Cc1ccc2[nH]c(CSc3nnc(COc4ccccc4C)n3C)cc(=O)c2c1 -27.7%, O=C(COCc1cc(-c2cccs2)on1)Nc1ccc(OC(F)(F)F)cc1 -1.31%, Cc1cc2c(cc1C)NC(CC(=O)Nc1ccccc1SC(F)(F)F)C(=O)N2 (stereo not given) -5.96%, Cc1ccc(S(=O)(=O)c2nc(-c3ccco3)oc2SCC(C)C)cc1 -29.8%, COc1cc(OC)c(NC(=O)Cn2cnc3sc(C)c(S(=O)(=O)N4CCN(C)CC4)c3c2=O)cc1Cl -13.4%, COc1ccc2ncc3c(-c4ccc(C)c(C)c4)nn(CC(=O)NC4CCCCC4)c3c2c1 -1.95%, CCc1ccccc1NC(=O)CN1C(=O)c2cccnc2Oc2ccc(Cl)cc21 -15.7%, CCOc1ccc(Br)cc1CNCCSc1nnnn1-c1ccccc1 -16.1%, CCc1ccc(NC(=O)c2nn(-c3ccc(C)cc3)c(=O)n(C)c2=O)cc1 -13.1%, COC(=O)NCc1c(C)nn(-c2ccccc2)c1-n1cccc1 -23.6%, COc1ccc(CNC(=O)c2cc3c(s2)-c2c(C)cccc2OC3)cc1 -5.61%, CCOC(=O)N1CCC2(CC1)OC(=O)C(C)=C2C(=O)NCc1cccc(OC)c1 -4.16%, Cn1c(=O)n(-c2cccc(Cl)c2)c(=O)c2sc3ccccc3c21 -14.5%, Cc1cc(NC(=O)Cn2nc(C)n3cccc3c2=O)ccc1Br -7.37%, CNC(=O)c1sc2ncccc2c1-n1cccc1 -2.49%, CCCS(=O)(=O)N1CC(=O)N(c2ccccc2C)C(C)(C(=O)NC2CCCC2)C1 (stereo not given) 1.95%, Cc1cccc(-n2ncc(C(=O)NCc3ccccn3)c2C2CCN(C(=O)OC(C)(C)C)CC2)c1 12.5%, CCN1CCN(Cc2c(O)ccc3c(C)c(-c4ccccc4)c(=O)oc23)CC1 -19.6%, CCCC(C(=O)OCCN(CC)CC)(c1ccccc1)c1ccccc1 -24.2%, Cc1ccc(NC(=O)Cn2c(=O)n(CCC(=O)NCc3ccc4c(c3)OCO4)c(=O)c3sccc32)c(C)c1 5.34%, Cc1ccc(C)c(N2CCN(c3nc4ccccc4n4c(C)nnc34)CC2)c1 -7.07%, Cc1ccc(NC(=O)C(c2ccccc2)N2Cc3ccccc3C2=O)cc1Cl (stereo not given) 3.45%, CCN1CCN(C(c2ccc(F)cc2)c2c(O)cc(C)n(CCOC)c2=O)CC1 (stereo not given) -9%, CCc1cccc2c(-c3ccc(F)cc3)nc(SCC(=O)Nc3ccccc3)nc12 -8.23%, CC(C)CCNC(=O)C1CCN(C(=O)N2CCOc3ccc(Cl)cc32)CC1 -21.4%, COc1ccc(C(=O)Nc2ccc(-c3cc4ccccc4oc3=O)c(C)c2)cc1OC -21.6%, CCOC(=O)c1c(C)[nH]c(C)c1S(=O)(=O)N1CCCC(C(=O)Nc2ccc(F)cc2F)C1 (stereo not given) -8%, O=C(NC1CCCCCC1)c1ccc2c(c1)sc1nc(-c3ccccc3)cn12 4.74%, COc1cc(C2CC(=O)N(c3ccccc3)C3=C2C(=O)OC3)cc(OC)c1OC (stereo not given) 0%, CCN1CCN(c2ncnc3c2cnn3-c2ccc(C)cc2)CC1 10.2%, C=C(C)CSc1nc2sc3c(c2c(=O)n1-c1ccccc1)CCC(C)C3 (stereo not given) -9.31% [at 11.5 µM], COc1ccccc1CNc1ccc(-c2nc(-c3ccncc3)no2)cc1[N+](=O)[O-] -9.39%, COc1ccc(CNC(=O)CC(c2ccc(OC)c(OC)c2)N2Cc3ccccc3C2=O)cc1 (stereo not given) -6.67%, CCOc1ccc(NC(=O)CSC2=Nc3ccccc3C3=NC(CC(=O)NCc4ccco4)C(=O)N23)cc1 (stereo not given) -13.9%, N#Cc1c[nH]n2c(NC3CCCC3)c(-c3cccc(Cl)c3)nc12 -2.2%

Source: PubChem BioAssay AID1508623 (National Center for Advancing Translational Sciences (NCATS), 2021)
